This is an account of results in patent US10548984B2 (priority 2015, dated 2020).

Structures are written as SMILES. Like-named read-outs stand apart in the source and are kept apart here. Non-standard residues stand in square brackets, D forms with d. Residues, ends and D or L forms follow the SMILES beside them.

Data set [1] has as its system C57BL/6 mice.
In data set [2] the test system is C57BL/6 mice. As to conditions: mouse, in vivo.
Data set [3] deals with C57BL/6 mice. As to conditions: mouse, in vivo. This is another data set of the same source.
The test system of data set [4] is C57BL/6 mice. This is another data set of the same source.
How the values of data set [5] were obtained: To analyse siRNA integrity in the presence of serum nuclease, naked siRNA or siRNA/peptide complexes (80 pmol) were incubated at 37° C. in 50% mouse serum for up to 72 hours. siRNA complexed with the RVG-9r peptide was included as a control. Aliquots taken at various time points (0 min, 2 hours, 8 hours, 24 hours, 48 hours, and 72 hours) were digested with proteinase K (2 mg/ml, Sigma Aldrich) for 1 hours and frozen in 2× urea-TBE loading buffer. Samples were analysed for the presence of intact siRNA on 15%-urea-polyacrylamide gels in TBE buffer and visualised on a UV-transilluminator subsequent to ethidium, bromide staining (FIG. 13).

Setting [6] is: MPTP + siRNA/peptide complex i.v., 20 rpm, max 60 s, 5 days after MPTP.
[7] abbreviates: MPTP + siRNA/peptide complex i.v., 1 to 20 rpm over 5 min.
The mark [8] stands for this setting: siRNA complexed with peptide, 50% mouse serum, 37° C.

For `CN1CC=C(c2ccccc2)CC1` [MPTP, reference compound], in the data set on C57BL/6 mice [1] (mouse, in vivo), the “fixed speed rotarod performance compared to control mice” value worked out at 30%. The “TH-ir fibres in striatum compared to the control group” value with C57BL/6 mice [2] is 43%. The “TH positive neurons in the SNpc compared to the control group” value in the data set on C57BL/6 mice [3] came to 57%. Moreover, in the data set on C57BL/6 mice [4] (mouse, in vivo), the “accelerated rotarod performance compared to control group” value is on record as 69%.
For `CC[C@@H](C)[C@@H](NC(=O)[C@@H](Cc1ccccc1)NC(=O)[C@H](NC(=O)[C@@H](CC(N)=O)NC(=O)[C@@H](CO)NC(=O)[C@@H](CCCNC(=N)N)NC(=O)CNC(=O)[C@@H](CCCCN)NC(=O)CN(C)C(=O)CN(C)C(=O)CN(C)C(=O)CN(C)C(=O)[C@@H](CCCNC(=N)N)NC(=O)[C@@H](CCCNC(=N)N)NC(=O)[C@@H](CCCNC(=N)N)NC(=O)[C@@H](CCCNC(=N)N)NC(=O)[C@@H](CCCNC(=N)N)NC(=O)[C@@H](CCCNC(=N)N)NC(=O)[C@@H](CCCNC(=N)N)NC(=O)[C@@H](CCCNC(=N)N)NC(=O)[C@H](N)CCCNC(=N)N)[C@H](C)O)C(=O)N[C@H](CC(=O)O)C(=O)N[C@H](CS)C(=O)O` [Test-RI-peptide, H-rrrrrrrrr-Sar-Sar-Sar-Sar-kGrsntfidc], in data set [5], the “partial stability / partial protection of siRNA (intact siRNA detected)” value is reported as “up to 24 hours” and the siRNA integrity retained result was “at least 8 hours”. Further, in the data set on C57BL/6 mice [1] (setting [6]), the “fixed speed rotarod performance compared to control mice” value was determined as 75%. For the same compound, in the data set on C57BL/6 mice [2], the “TH-ir fibres in striatum compared to saline treated control group” value was determined as 72%. In the data set with C57BL/6 mice [3], the “TH positive neurons in the SNpc compared to control” value was determined as 82%. The “accelerated rotarod performance compared to control group” value in the data set on C57BL/6 mice [4] (setting [7]) is 95%.
With `CC[C@H](C)[C@H](NC(=O)[C@H](CC(=O)O)NC(=O)[C@@H](N)CS)C(=O)N[C@@H](Cc1ccccc1)C(=O)N[C@H](C(=O)N[C@@H](CC(N)=O)C(=O)N[C@@H](CO)C(=O)N[C@@H](CCCNC(=N)N)C(=O)NCC(=O)N[C@@H](CCCCN)C(=O)NCC(=O)NCC(=O)NCC(=O)NCC(=O)N[C@H](CCCNC(=N)N)C(=O)N[C@H](CCCNC(=N)N)C(=O)N[C@H](CCCNC(=N)N)C(=O)N[C@H](CCCNC(=N)N)C(=O)N[C@H](CCCNC(=N)N)C(=O)N[C@H](CCCNC(=N)N)C(=O)N[C@H](CCCNC(=N)N)C(=O)N[C@H](CCCNC(=N)N)C(=O)N[C@H](CCCNC(=N)N)C(=O)O)[C@@H](C)O` [Test-peptide] (H-CDIFTNSRGKGGGG[dR][dR][dR][dR][dR][dR][dR][dR][dR]-OH; C-terminus assumed), in data set [5] (setting [8]), the “partial stability / partial protection of siRNA (intact siRNA detected)” value was “up to 24 hours” and the siRNA integrity retained entry is given as “at least 8 hours”. Further, the “fixed speed rotarod performance compared to control mice” value in the data set with C57BL/6 mice [1] (setting [6]) is on record as 85%. For the same compound, in the data set on C57BL/6 mice [2], the “TH-ir fibres in striatum compared to saline treated control group” value was determined as 77%. The “TH positive neurons in the SNpc compared to control” value in the data set with C57BL/6 mice [3] is reported as 80%. Besides, the “accelerated rotarod performance compared to control group” value with C57BL/6 mice [4] (setting [7]) was 94%.
